This passage reports binding results from article PMC3637500.

The labels stand for the following.
B1: Myc-Gab1 (ΔEYYK), Gab1 without its first 49 amino acids (domain or fragment, UniProt Q9QYY0 50-695)
chain: NDHAKKPIRIIDLNLCQQVDAGLTFNKKEFENSYIFDINTIDRIFYLVADSEEDMNKWVRCICDICGFNPTEEDPVKPLTGSSQAPVDSPFAISTAPASSQMEASSVALPPPYQVISLPPHPDTLGLQDDPQDYLLLINCQSKKPEPNRTLFDSAKPTFSETDCNDNVPSHQTPASSQSKHGMNGFFQQQMMYDCPPSRLTSVSGESSLYNLPRSYSHDVLPKESPSSTEADGELYTFNTPSGTAGVETQMRHVSISYDIPPTPGNTYQIPRTFPESTLGQSSKLDTIPDIPPPRPPKPHPTHDRSPVETCGVPRTASDTDSSYCIPPPAGMTPSRSNTISTVDLNKLRKDASSQDCYDIPRTFPSDRSSSLEGFHSQYKIKSVLTAGGVSGEELDENYVPMNPNSPPRQHSGSFTEPIQEPNYVPMTPGTFDFSSFGMQVPPPAHMGFRSSPKTPPRRPVPVADCEPPPVDRNLKPDRKVKPAPLDIKPLSEWEELQAPVRSPITRSFARDSSRFPMSPRPDSVHSTTSSSDSHDSEENYVPMNPNLSGEDPNLFASNSLDGGSSPMNKPKGDKQVEYLDLDLDSGKSTPPRKQKSSGSGSSMADERVDYVVVDQQKTLALKSTREAWTDGRQSTESETPTKNVK
B2: Myc-tagged Gab1-Y473F (protein, UniProt Q9QYY0 1-695)
chain: MSGGEVVCSGWLRKSPPEKKLKRYAWKRRWFVLRSGRLTGDPDVLEYYKNDHAKKPIRIIDLNLCQQVDAGLTFNKKEFENSYIFDINTIDRIFYLVADSEEDMNKWVRCICDICGFNPTEEDPVKPLTGSSQAPVDSPFAISTAPASSQMEASSVALPPPYQVISLPPHPDTLGLQDDPQDYLLLINCQSKKPEPNRTLFDSAKPTFSETDCNDNVPSHQTPASSQSKHGMNGFFQQQMMYDCPPSRLTSVSGESSLYNLPRSYSHDVLPKESPSSTEADGELYTFNTPSGTAGVETQMRHVSISYDIPPTPGNTYQIPRTFPESTLGQSSKLDTIPDIPPPRPPKPHPTHDRSPVETCGVPRTASDTDSSYCIPPPAGMTPSRSNTISTVDLNKLRKDASSQDCYDIPRTFPSDRSSSLEGFHSQYKIKSVLTAGGVSGEELDENYVPMNPNSPPRQHSGSFTEPIQEPNFVPMTPGTFDFSSFGMQVPPPAHMGFRSSPKTPPRRPVPVADCEPPPVDRNLKPDRKVKPAPLDIKPLSEWEELQAPVRSPITRSFARDSSRFPMSPRPDSVHSTTSSSDSHDSEENYVPMNPNLSGEDPNLFASNSLDGGSSPMNKPKGDKQVEYLDLDLDSGKSTPPRKQKSSGSGSSMADERVDYVVVDQQKTLALKSTREAWTDGRQSTESETPTKNVK
B3: Myc-tagged Gab1-Y628F (protein, UniProt Q9QYY0 1-695)
chain: B2 chain with F473Y, Y628F
B4: Myc-Gab1 (K49A) (protein, UniProt Q9QYY0 1-695)
chain: B2 chain with K49A, F473Y
B5: Gab1 expressed from pCDNA3-Gab1 in HEK-293T cells (no tag named) (protein, UniProt Q9QYY0 1-695)
chain: B2 chain with F473Y
B6: Myc-tagged Gab1-Y285F (protein, UniProt Q9QYY0 1-695)
chain: B2 chain with Y285F, F473Y
B7: Myc-tagged Gab1-Y407F (protein, UniProt Q9QYY0 1-695)
chain: B2 chain with Y407F, F473Y
B8: Myc-tagged Gab1-Y373F (protein, UniProt Q9QYY0 1-695)
chain: B2 chain with Y373F, F473Y
B9: Myc-Gab1 (Y47F) (protein, UniProt Q9QYY0 1-695)
chain: B2 chain with Y47F, F473Y
B10: Myc-tagged Gab1-Y660F (protein, UniProt Q9QYY0 1-695)
chain: B2 chain with F473Y, Y660F
B11: Myc-tagged full-length Gab1 (wild type) (protein, UniProt Q9QYY0 1-695)
chain: B2 chain with F473Y
B12: Myc-Gab1 (K49T) (protein, UniProt Q9QYY0 1-695)
chain: B2 chain with K49T, F473Y
B13: Myc-tagged Gab1-Y448F (protein, UniProt Q9QYY0 1-695)
chain: B2 chain with Y448F, F473Y
B14: Myc-tagged Gab1-Y590F (protein, UniProt Q9QYY0 1-695)
chain: B2 chain with F473Y, Y590F
B15: Truncated Myc-Gab1 (1–280 amino acids) (domain or fragment, UniProt Q9QYY0 1-280)
chain: MSGGEVVCSGWLRKSPPEKKLKRYAWKRRWFVLRSGRLTGDPDVLEYYKNDHAKKPIRIIDLNLCQQVDAGLTFNKKEFENSYIFDINTIDRIFYLVADSEEDMNKWVRCICDICGFNPTEEDPVKPLTGSSQAPVDSPFAISTAPASSQMEASSVALPPPYQVISLPPHPDTLGLQDDPQDYLLLINCQSKKPEPNRTLFDSAKPTFSETDCNDNVPSHQTPASSQSKHGMNGFFQQQMMYDCPPSRLTSVSGESSLYNLPRSYSHDVLPKESPSSTEA

Where a chain is given by its changes, count along the chain named. Numbers in names are those of the source. No constants are given. Whether binding was seen depends on the method and setting. Binding seen in cells or lysates may run through a third protein. Some entries that bind do so weakly or less than the wild type. Sequences can lack the tags named with a protein.

The first test has as its target T1, GST-PTP1B-D181A (substrate-trapping mutant of PTP1B, GST fusion protein) (mouse) (UniProt P35821).
T1 sequence: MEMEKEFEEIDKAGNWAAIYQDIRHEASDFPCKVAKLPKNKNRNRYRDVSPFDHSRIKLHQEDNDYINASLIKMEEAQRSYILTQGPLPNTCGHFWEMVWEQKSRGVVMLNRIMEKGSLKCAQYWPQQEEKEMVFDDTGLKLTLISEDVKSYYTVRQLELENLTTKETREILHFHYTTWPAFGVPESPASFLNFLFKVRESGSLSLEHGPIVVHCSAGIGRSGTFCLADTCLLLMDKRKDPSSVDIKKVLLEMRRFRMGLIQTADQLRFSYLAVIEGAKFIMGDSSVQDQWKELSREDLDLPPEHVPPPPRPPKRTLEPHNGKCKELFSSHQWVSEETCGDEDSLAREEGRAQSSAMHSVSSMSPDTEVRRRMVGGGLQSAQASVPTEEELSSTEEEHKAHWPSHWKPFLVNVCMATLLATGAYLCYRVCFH
The test can be described thus: pull-down; substrate trapping: GST-PTP1B-WT or GST-PTP1B-D181A bound on glutathione beads; lysates of retinal ex vivo explants or HEK-293T cells treated with 1 mM pervanadate for 30 min; 2 h at 4°C in substrate-trapping buffer; immunoblot with anti-Gab1 or anti-Myc; only the target purified.
As to B1, the binding result is on record as “binds”.

With B2, the binding entry was “binds”.

On to B3, for which the binding entry is “binds”.

For the molecule B4, the binding result is recorded as “binds weakly”.

Turning to B5, the binding entry is “binds”.

Regarding B6, the binding result is recorded as “binds”.

As for B7, the binding entry was “binds”.

With B8, the binding entry is “binds”.

For the molecule B9, the binding result is listed as “binds”.

In the case of B10, the binding result was “binds”.

For the molecule B11, the binding entry is “binds”.

On to B12, for which the binding result is “binds weakly”.

Regarding B13, the binding entry is recorded as “binds”.

For B14, the binding entry is recorded as “binds”.

In the case of B15, the binding result was “binds”.

A further test has as its target T2, GST-PTP1B-WT (wild type protein tyrosine phosphatase-1B, GST fusion protein) (mouse) (UniProt P35821).
T2 sequence: T1 sequence with A181D
The test is described as above.
Take B5: the binding entry was “no binding”.

For B11, the binding result was “no binding”.

A further test deals with T1, GST-PTP1B-D181A (substrate-trapping mutant of PTP1B, GST fusion protein) (mouse). The test can be described thus: pull-down; as the substrate trapping pull-down, but HEK-293T cells were not treated with pervanadate; immunoblot with anti-Myc and anti-pGab1; only the target purified.
Consider B11, for which the binding result is given as “no binding (condition: cells not treated with pervanadate)”.

A further test shares this target. The test can be described thus: condition: only lysates treated with wild type PTP1B before the pull-down; pull-down; as the substrate trapping pull-down, but lysates of pervanadate-treated HEK-293T cells were incubated with wild type GST-PTP1B before the pull-down; immunoblot with anti-Myc; only the target purified.
For B11, the binding result is reported as “no binding”.
